# Data as given in paper PMC4336329 (PLoS ONE, 2015).
# The campaign covered roughly 310,000 compounds. About 2,200 (0.71%) showed an effect of 50% or more. The effect is printed as a negative number. Some of the results follow.
# Target: human ether-à-go-go-related gene (hERG) potassium channel (human, UniProt Q12809)
# Assay: primary screen, population patch clamp on CHO cells stably expressing hERG
# Sequence of human ether-à-go-go-related gene (hERG) potassium channel (Q12809 whole entry, looked up): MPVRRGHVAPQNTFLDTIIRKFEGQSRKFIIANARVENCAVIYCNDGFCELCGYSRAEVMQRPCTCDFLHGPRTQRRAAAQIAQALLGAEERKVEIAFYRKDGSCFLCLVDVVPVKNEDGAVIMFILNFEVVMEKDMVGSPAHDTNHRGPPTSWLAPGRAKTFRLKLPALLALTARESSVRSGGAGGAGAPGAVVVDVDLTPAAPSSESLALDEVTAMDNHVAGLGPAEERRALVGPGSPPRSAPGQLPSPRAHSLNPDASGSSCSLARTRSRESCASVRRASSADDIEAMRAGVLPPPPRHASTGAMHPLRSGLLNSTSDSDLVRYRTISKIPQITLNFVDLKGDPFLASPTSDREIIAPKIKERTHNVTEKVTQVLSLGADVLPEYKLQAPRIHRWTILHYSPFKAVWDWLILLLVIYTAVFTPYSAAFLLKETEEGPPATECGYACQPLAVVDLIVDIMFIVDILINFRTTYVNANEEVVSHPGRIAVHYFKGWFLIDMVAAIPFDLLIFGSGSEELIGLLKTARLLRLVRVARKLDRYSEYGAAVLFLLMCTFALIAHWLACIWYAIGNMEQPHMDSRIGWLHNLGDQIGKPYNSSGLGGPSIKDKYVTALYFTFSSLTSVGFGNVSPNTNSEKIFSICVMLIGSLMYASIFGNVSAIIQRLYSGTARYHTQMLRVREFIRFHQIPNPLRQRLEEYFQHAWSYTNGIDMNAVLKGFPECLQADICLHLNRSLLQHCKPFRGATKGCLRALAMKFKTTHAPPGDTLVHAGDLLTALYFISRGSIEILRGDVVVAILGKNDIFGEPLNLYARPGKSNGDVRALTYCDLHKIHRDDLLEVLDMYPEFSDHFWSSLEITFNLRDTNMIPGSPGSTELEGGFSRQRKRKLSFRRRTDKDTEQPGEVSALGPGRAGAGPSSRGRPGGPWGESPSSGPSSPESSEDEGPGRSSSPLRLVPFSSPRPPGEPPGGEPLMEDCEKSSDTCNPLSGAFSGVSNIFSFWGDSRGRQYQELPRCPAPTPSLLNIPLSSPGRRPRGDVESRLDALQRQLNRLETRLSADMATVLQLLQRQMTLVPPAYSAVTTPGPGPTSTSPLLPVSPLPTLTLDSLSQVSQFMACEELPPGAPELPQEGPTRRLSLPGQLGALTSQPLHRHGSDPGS
row,Structure (SMILES),"hERG current change (%, negative = inhibition) at 1uM [%]"
1,O=C(CSc1ncccn1)N/N=C/c1ccc2c(c1)OCO2,1.72
2,Cc1ccc(/C=C2\SC(=S)N(CCC(=O)Nc3ccc(O)cc3)C2=O)cc1,0.921
3,CCc1ccc(N(CC(=O)NC2CCCC2)C(=O)CCC(=O)Nc2cc(C)on2)cc1,-10.2
4,COc1ccc(OC)c(S(=O)(=O)N2CCCC(C(=O)N3CCOCC3)C2)c1 (centres unmarked),18
5,CC(NC(=S)Nc1ccccc1)C1COc2ccccc2O1 (centres unmarked),5.61
6,CCC(CO)NCc1ccc(OCC(O)c2ccccc2)c(OC)c1.Cl (centres unmarked),14
7,Cn1c(SCC(=O)NCc2ccco2)nc2ccccc2c1=O,-10.3
8,CC1(C)CC(=O)C2=C(C1)OC(N)=C(C#N)C2C1CC=CCC1 (centres unmarked),12.9
9,N#Cc1c(-n2ccnc2)cccc1-n1ccnc1,1.46
10,Cc1ccnc(N2CCC(C(=O)Nc3ccc4c(c3)OCO4)CC2)n1,7.12
11,CCc1sc(C(=O)Nc2ccc(NC(C)=O)cc2)cc1C,14.6
12,COc1cc(C(=O)N2CCN(C(=O)c3ccco3)CC2)c([N+](=O)[O-])cc1OC,14
13,CC(C)c1ccccc1-n1c(SCC(=O)c2ccc3c(c2)NC(=O)CO3)nc2ccccc2c1=O,6.71
14,CCCN(Cc1ccc(N(CC)CC)cc1)CC1CC1,10.3
15,CC(CNC(=O)c1cc(COc2ccc3ncccc3c2)on1)c1ccccc1 (centres unmarked),13.2
16,CC(/C=N/NC(=O)c1nnn(-c2nonc2N)c1C(C)C)=C\c1ccco1,10.7
17,COC(=O)CNc1nc(-c2ccncc2)nc2ccccc12,6.72
18,O=S1(=O)CCOC[C@H](Cc2ccccc2)N1Cc1cccc(F)c1,7.43
19,Cc1ccccc1NC(=O)c1ccc(F)c(S(=O)(=O)N2CCN(c3ccccn3)CC2)c1,6.71
20,CC(C(=O)O)C1SC(=O)NC1=O (centres unmarked),8.38
21,O=C1NCCCCC1NS(=O)(=O)c1cccc(C(F)(F)F)c1 (centres unmarked),9.87
22,C/C(=N/NC(=O)c1ccccc1O)c1ccc(N2C(=O)C3CCCCC3C2=O)cc1 (centres unmarked),19.4

row,Structure (SMILES),"hERG current change (%, negative = inhibition) at 1uM [%]"
1,O=C(Nc1cccc2ccccc12)NC1CCCCC1O (centres unmarked),-2.01
2,CCc1nc2c(n1O)CCc1nonc1-2,2.68
3,Cc1ccc(OCCCn2ccnc2)c([N+](=O)[O-])c1,-2.31
4,COc1cc(C2CC(=O)c3cnc(NC(=O)c4ccco4)nc3C2)cc(OC)c1OC (centres unmarked),14.9
5,CSc1ncccc1C(=O)OCC(=O)NC(=O)NCCC(C)C,-5.41
6,CCOc1ccc2nc(SCC3CC3(Cl)Cl)[nH]c2c1 (centres unmarked),9.37
7,CC(=O)N1CCc2cc(S(=O)(=O)NC(C(=O)NC3CCCc4ccccc43)C(C)C)ccc21 (centres unmarked),9.27
8,Cc1ccc(SCCNC(=O)c2ccccc2)cc1,6.83
9,Cc1ccc(S(=O)(=O)NCC(=O)OCC(=O)c2ccc(Cl)s2)cc1,8.17
10,COc1ccc2c(c1OC)C(=O)N1C2SC[C@H]1C(=O)NC1CCCC1 (some centres unmarked),16.3
11,COc1ccccc1C(=O)COC(=O)c1ccccc1OCC(=O)Nc1ccc(SC(F)F)cc1,11.4
12,O=C(CC1CC2CCC1C2)NCc1cccs1 (centres unmarked),6.89
13,Cc1ccc(N2CC(C(=O)N3CCC(C(=O)NC(C)(C)C)CC3)CC2=O)cc1 (centres unmarked),17.7
14,CC(C)Cn1nnc2c(=O)oc3ccccc3c21,-6.01
15,O=C(CCOc1ccccc1)Nc1ccnn1C1CCN(Cc2ccc(CO)o2)CC1,10.8
16,Cc1c(C2OC(=O)C3(CCCCC3)C(=O)C2(C)C)c(=O)n(-c2ccccc2)n1C (centres unmarked),2.52
17,COc1ccc(S(=O)(=O)N2CCCN(C)CC2)cc1.Cl,11.4
18,CC1S/C(=N/N=C2CCCCC2)NC1=O (centres unmarked),12
19,CCOC(=O)c1c(S(=O)(=O)Nc2ccc(F)cc2Cl)c(C)n(C)c1C,9.97
20,COc1ccc(N2C(=S)N=C(Nc3cccc(C)c3)C23CCCCC3)cc1,14.6
21,CCN(CCO)c1ncnc2onc(-c3ccc(F)cc3)c12,8.08
22,Cc1ccccc1NC(=S)NCc1cccn1C,-4.86
